According to the supplement of paper PMC8728848:
The other results are listed elsewhere or left out.

What was measured:
Test in all cases: glycan array binding signal (z-score within array); higher = stronger binding
Conditions in all cases: glycan notation: IUPAC condensed, linker removed
[1] = target: Fuc(a1-2)[Gal(a1-4)]Gal(b1-4)GlcNAc
In short: (§1)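 From the Consortium for Functional Glycomics database, 3228 arrays were curated, keeping only those whose protein sequence was available. Binding is given as a within-array Z-score averaged across arrays sharing a protein sequence and across linkers. Negative Z-scores can be read as non-binding.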

[2] = target: Fuc(a1-2)[GalNAc(a1-3)]Gal
In short: as §1

[3] = target: Fuc(a1-2)[GalNAc(a1-3)]Gal(b1-3)GalNAc(a1-3)[Fuc(a1-2)]Gal(b1-4)GlcNAc
In short: as §1

[4] = target: Fuc(a1-2)[GalNAc(a1-3)]Gal(b1-3)GalNAc(b1-3)Gal(a1-4)Gal(b1-4)Glc
In short: as §1

[5] = target: Fuc(a1-2)[GalNAc(a1-3)]Gal(b1-3)GlcNAc
In short: as §1

[6] = target: Fuc(a1-2)[GalNAc(a1-3)]Gal(b1-3)GlcNAc(b1-2)Man(a1-3)[Fuc(a1-2)[GalNAc(a1-3)]Gal(b1-3)GlcNAc(b1-2)Man(a1-6)]Man(b1-4)GlcNAc(b1-4)GlcNAc
In short: as §1

[7] = target: Fuc(a1-2)[GalNAc(a1-3)]Gal(b1-3)GlcNAc(b1-2)Man(a1-3)[Fuc(a1-2)[GalNAc(a1-3)]Gal(b1-3)GlcNAc(b1-2)Man(a1-6)]Man(b1-4)GlcNAc(b1-4)[Fuc(a1-6)]GlcNAc
In short: as §1

[8] = target: Fuc(a1-2)[GalNAc(a1-3)]Gal(b1-3)GlcNAc(b1-3)GalNAc
In short: as §1

[9] = target: Fuc(a1-2)[GalNAc(a1-3)]Gal(b1-3)GlcNAc(b1-6)GalNAc
In short: as §1

[10] = target: Fuc(a1-2)[GalNAc(a1-3)]Gal(b1-4)Glc
In short: as §1

[11] = target: Fuc(a1-2)[GalNAc(a1-3)]Gal(b1-4)GlcNAc
In short: as §1

[12] = target: Fuc(a1-2)[GalNAc(a1-3)]Gal(b1-4)GlcNAc(b1-2)Man
In short: as §1

[13] = target: Fuc(a1-2)[GalNAc(a1-3)]Gal(b1-4)GlcNAc(b1-2)Man(a1-3)[Fuc(a1-2)[GalNAc(a1-3)]Gal(b1-4)GlcNAc(b1-2)Man(a1-6)]Man(b1-4)GlcNAc(b1-4)GlcNAc
In short: as §1

[14] = target: Fuc(a1-2)[GalNAc(a1-3)]Gal(b1-4)GlcNAc(b1-2)Man(a1-3)[Fuc(a1-2)[GalNAc(a1-3)]Gal(b1-4)GlcNAc(b1-2)Man(a1-6)]Man(b1-4)GlcNAc(b1-4)[Fuc(a1-6)]GlcNAc
In short: as §1

[15] = target: Fuc(a1-2)[GalNAc(a1-3)]Gal(b1-4)GlcNAc(b1-3)Gal(b1-4)GlcNAc
In short: as §1

[16] = target: Fuc(a1-2)[GalNAc(a1-3)]Gal(b1-4)GlcNAc(b1-3)Gal(b1-4)GlcNAc(b1-3)Gal(b1-4)GlcNAc
In short: as §1

[17] = target: Fuc(a1-2)[GalNAc(a1-3)]Gal(b1-4)GlcNAc(b1-3)GalNAc
In short: as §1

[18] = target: Fuc(a1-2)[GalNAc(a1-3)]Gal(b1-4)GlcNAc(b1-3)[Fuc(a1-2)[GalNAc(a1-3)]Gal(b1-4)GlcNAc(b1-6)]GalNAc
In short: as §1

[19] = target: Fuc(a1-2)[GalNAc(a1-3)]Gal(b1-4)GlcNAc(b1-6)GalNAc
In short: as §1

[20] = target: Fuc(a1-2)[GalNAc(a1-3)]Gal(b1-4)[Fuc(a1-3)]GlcNAc
In short: as §1

[21] = target: Fuc(a1-2)[GalNAc(a1-3)]Gal(b1-4)[Fuc(a1-3)]GlcNAc(b1-3)GalNAc
In short: as §1

[22] = target: Fuc(a1-2)[GalNAc(a1-4)]Gal(b1-4)GlcNAc
In short: as §1

[23] = target: Fuc(a1-2)[GalNAc(b1-3)]Gal
In short: as §1

Fuc(a1-3)GlcNAc = target: Fuc(a1-3)GlcNAc
In short: as §1

[24] = target: Fuc(a1-3)[Gal(b1-4)]Glc6S
In short: as §1

[25] = target: Fuc(a1-3)[Gal(b1-4)]GlcNAc
In short: as §1

[26] = target: Fuc(a1-3)[Gal(b1-4)]GlcNAc(b1-2)Man
In short: as §1

[27] = target: Fuc(a1-3)[Gal(b1-4)]GlcNAc(b1-2)Man(a1-3)[Fuc(a1-3)[Gal(b1-4)]GlcNAc(b1-2)Man(a1-6)]Man(b1-4)GlcNAc(b1-4)GlcNAc
In short: as §1

[28] = target: Fuc(a1-3)[Gal(b1-4)]GlcNAc(b1-2)Man(a1-3)[Fuc(a1-3)[Gal(b1-4)]GlcNAc(b1-2)Man(a1-6)]Man(b1-4)GlcNAc(b1-4)[Fuc(a1-6)]GlcNAc
In short: as §1

[29] = target: Fuc(a1-3)[Gal(b1-4)]GlcNAc(b1-3)Gal(b1-3)[Fuc(a1-4)]GlcNAc
In short: as §1

[30] = target: Fuc(a1-3)[Gal(b1-4)]GlcNAc(b1-3)Gal(b1-4)[Fuc(a1-3)]GlcNAc
In short: as §1

[31] = target: Fuc(a1-3)[Gal(b1-4)]GlcNAc(b1-3)Gal(b1-4)[Fuc(a1-3)]GlcNAc(b1-3)Gal(b1-4)[Fuc(a1-3)]GlcNAc
In short: as §1

[32] = target: Fuc(a1-3)[Gal(b1-4)]GlcNAc(b1-3)GalNAc
In short: as §1

[33] = target: Fuc(a1-3)[Gal(b1-4)]GlcNAc(b1-6)GalNAc
In short: as §1

[34] = target: Fuc(a1-3)[Gal(b1-4)]GlcNAc(b1-6)[Gal(b1-3)GlcNAc(b1-3)]Gal(b1-4)Glc
In short: as §1

[35] = target: Fuc(a1-3)[Gal(b1-4)]GlcNAc6S
In short: as §1

[36] = target: Fuc(a1-3)[Gal3S(b1-4)]Glc
In short: as §1

[37] = target: Fuc(a1-3)[Gal3S(b1-4)]GlcNAc
In short: as §1

B1: Cohesin-hDECTIN-1 (Homo sapiens) (protein)
chain: LDITSHHHHHHDDLDAVRIKVDTVNAKPGDTVRIPVRFSGIPSKGIANCDFVYSYDPNVLEIIEIEPGDIIVDPNPDKSFDTAVYPDRKIIVFLFAEDSGTGAYAITKDGVFATIVAKVKEGAPNGLSVIKFVEVGGFANNDLVEQKTQFFDGGVNVGDTTEPATPTTPVTTPTTTDDLDAASSSPCPPNWIIYEKSCYLFSMSLNSWDGSKRQCWQLGSNLLKIDSSNELGFIVKQVSSQPDNSFWIGLSRPQTEVPWLWEDGSTFSSNLFQIRTTATQENPSPNCVWIHVSVIYDQLCSVPSYSICEKKFM
**Q.** Which results are given for B1?
**A.** glycan array binding signal (z-score) [1]: -0.394; glycan array binding signal (z-score) [2]: 0.434; glycan array binding signal (z-score) [3]: -0.177; glycan array binding signal (z-score) [4]: -0.377; glycan array binding signal (z-score) [5]: -0.306; glycan array binding signal (z-score) [6]: -0.171; glycan array binding signal (z-score) [7]: -0.305; glycan array binding signal (z-score) [8]: -0.218; glycan array binding signal (z-score) [9]: 2.46; glycan array binding signal (z-score) [10]: -0.197; glycan array binding signal (z-score) [11]: 0.046; glycan array binding signal (z-score) [12]: 0.095; glycan array binding signal (z-score) [13]: -0.383; glycan array binding signal (z-score) [14]: -0.249; glycan array binding signal (z-score) [15]: -0.348; glycan array binding signal (z-score) [16]: -0.459; glycan array binding signal (z-score) [17]: -0.382; glycan array binding signal (z-score) [18]: -0.253; glycan array binding signal (z-score) [19]: 6.29; glycan array binding signal (z-score) [20]: -0.149; glycan array binding signal (z-score) [21]: 0.187; glycan array binding signal (z-score) [22]: 4.25; glycan array binding signal (z-score) [23]: 4.83; glycan array binding signal (z-score) (Fuc(a1-3)GlcNAc): -0.147; glycan array binding signal (z-score) [24]: -0.379; glycan array binding signal (z-score) [25]: -0.311; glycan array binding signal (z-score) [26]: -0.245; glycan array binding signal (z-score) [27]: -0.301; glycan array binding signal (z-score) [28]: -0.51; glycan array binding signal (z-score) [29]: -0.336; glycan array binding signal (z-score) [30]: -0.432; glycan array binding signal (z-score) [31]: -0.212; glycan array binding signal (z-score) [32]: -0.18; glycan array binding signal (z-score) [33]: 0.362; glycan array binding signal (z-score) [34]: -0.475; glycan array binding signal (z-score) [35]: -0.678; glycan array binding signal (z-score) [36]: -0.276; glycan array binding signal (z-score) [37]: -0.146
